Data taken from the supplement of paper PMC4967469.
pIC50: −log10 of the molar value. The IC50 comes from the fitted curve, where viability falls to half of the control; fits outside the tested doses are given as limits. The AUC spans the tested range (256-fold, ending at the top dose) of the same fit; the more sensitive the line, the further below 1. For part of these data: The top dose, if marked as inferred, comes from the curve model; the source does not state it. For part of these data: Drugs with an entry number were screened twice under separate entries, and the two screens often disagree.

What was measured:
Experiment in all cases: Viability of human cancer cell lines after 72 h of drug (GDSC screen)
PD-0332991 = compound: CC(=O)c1c(C)c2cnc(Nc3ccc(N4CCNCC4)cn3)nc2n(C2CCCC2)c1=O [PD-0332991]
Description: (§1)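 Human cancer cell lines in 384-well plates, medium with 10% serum, drug for 72 h over a 256-fold dose range (nine 2-fold or five 4-fold steps up to the top dose). Adherent lines were fixed and stained with the nucleic acid dye Syto60, suspension lines read with resazurin; signal relative to control wells, capped at 0 and 100%. One two-parameter sigmoid per drug and line, fitted in a mixed model over all curves with the slope shared within a line.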

ZM-447439 = compound: COc1cc2c(Nc3ccc(NC(=O)c4ccccc4)cc3)ncnc2cc1OCCCN1CCOCC1 [ZM-447439]; details: top dose inferred
Description: as §1

AZD6244 = compound: Cn1cnc2c(F)c(Nc3ccc(Br)cc3Cl)c(C(=O)NOCCO)cc21 [AZD6244]; details: screen: GDSC drug entry 1062
Description: as §1

Row | Cell Line | AUC (PD-0332991) | pIC50 (PD-0332991) | AUC (ZM-447439) | pIC50 (ZM-447439) | AUC (AZD6244) | pIC50 (AZD6244)
1 | NB6 (neuroblastoma, adherent, top dose 4 µM) | 0.72 | 5.91 | 0.9 | < 5.40 | 0.983 | < 5.40
2 | NB7 (neuroblastoma, adherent, top dose 4 µM) | 0.986 | < 5.40 | 0.92 | < 5.40 | 0.986 | < 5.40
3 | NB10 (neuroblastoma, adherent, top dose 4 µM) | 0.727 | 5.97 | 0.908 | < 5.40 | 0.903 | < 5.40
4 | NB12 (neuroblastoma, adherent, top dose 4 µM) | 0.908 | < 5.40 | 0.947 | < 5.40 | 0.978 | < 5.40
5 | NB13 (neuroblastoma, adherent, top dose 4 µM) | 0.915 | < 5.40 | 0.917 | < 5.40 | 0.989 | < 5.40
6 | NB14 (neuroblastoma, adherent, top dose 4 µM) | 0.507 | 6.58 | 0.702 | 6.05 | 0.986 | < 5.40
7 | NB17 (neuroblastoma, adherent, top dose 4 µM) | 0.9 | < 5.40 | 0.85 | 5.43 | 0.984 | < 5.40
8 | NB69 (neuroblastoma, adherent, top dose 4 µM) | 0.436 | 6.77 | 0.874 | 5.50 | 0.705 | 6.06
9 | NB(TU)1-10 (neuroblastoma, adherent, top dose 4 µM) | 0.991 | < 5.40 | 0.989 | < 5.40 | 0.993 | < 5.40
10 | NB-4 (acute myeloid leukaemia, suspension, top dose 4 µM) | 0.485 | 6.64 | 0.805 | 5.80 | 0.938 | < 5.40
11 | NCC010 (kidney, adherent, top dose 4 µM) | 0.779 | 5.75 | 0.929 | < 5.40 | 0.986 | < 5.40
12 | NCC021 (kidney, adherent, top dose 4 µM) | 0.938 | < 5.40 | 0.977 | < 5.40 | 0.98 | < 5.40
13 | NCI-H23 (lung adenocarcinoma, adherent, top dose 4 µM) | 0.862 | 5.47 | 0.931 | < 5.40 | 0.943 | < 5.40
14 | NCI-H28 (mesothelioma, adherent, top dose 4 µM) | 0.809 | 5.53 | 0.918 | < 5.40 | 0.938 | < 5.40
15 | NCI-H64 (small cell lung carcinoma, suspension, top dose 4 µM) | 0.989 | < 5.40 | 0.969 | < 5.40 | 0.996 | < 5.40
16 | NCI-H69 (small cell lung carcinoma, suspension, top dose 4 µM) | 0.986 | < 5.40 | 0.937 | < 5.40 | 0.986 | < 5.40

Row | Cell Line | AUC (PD-0332991) | pIC50 (PD-0332991) | AUC (ZM-447439) | pIC50 (ZM-447439) | AUC (AZD6244) | pIC50 (AZD6244)
17 | NCI-H82 (small cell lung carcinoma, suspension, top dose 4 µM) | 0.977 | < 5.40 | 0.867 | 5.48 | 0.972 | < 5.40
18 | NCI-H146 (small cell lung carcinoma, suspension, top dose 4 µM) | 0.983 | < 5.40 | 0.964 | < 5.40 | 0.99 | < 5.40
19 | NCI-H187 (small cell lung carcinoma, suspension, top dose 4 µM) | 0.988 | < 5.40 | 0.985 | < 5.40 | 0.983 | < 5.40
20 | NCI-H209 (small cell lung carcinoma, suspension, top dose 4 µM) | 0.715 | 5.97 | 0.84 | 5.52 | 0.963 | < 5.40
21 | NCI-H211 (small cell lung carcinoma, adherent, top dose 4 µM) | 0.917 | < 5.40 | 0.855 | 5.52 | 0.987 | < 5.40
22 | NCI-H226 (lung squamous cell carcinoma, adherent, top dose 4 µM) | 0.919 | < 5.40 | 0.918 | < 5.40 | 0.942 | < 5.40
23 | NCI-H322M (lung adenocarcinoma, suspension, top dose 4 µM) | 0.971 | < 5.40 | 0.982 | < 5.40 | 0.973 | < 5.40
24 | NCI-H345 (small cell lung carcinoma, suspension, top dose 4 µM) | 0.99 | < 5.40 | 0.987 | < 5.40 | 0.986 | < 5.40
25 | NCI-H446 (small cell lung carcinoma, semi-adherent, top dose 4 µM) | 0.985 | < 5.40 | 0.883 | < 5.40 | 0.986 | < 5.40
26 | NCI-H460 (large cell lung carcinoma, adherent, top dose 4 µM) | 0.807 | 5.74 | 0.872 | 5.49 | 0.817 | 5.71
27 | NCI-H508 (large intestine, semi-adherent, top dose 4 µM) | 0.913 | < 5.40 | 0.937 | < 5.40 | 0.654 | 6.05
28 | NCI-H510A (small cell lung carcinoma, semi-adherent, top dose 4 µM) | 0.99 | < 5.40 | 0.92 | < 5.40 | 0.908 | < 5.40
29 | NCI-H520 (lung squamous cell carcinoma, adherent, top dose 4 µM) | 0.626 | 6.25 | 0.917 | < 5.40 | 0.962 | < 5.40
30 | NCI-H522 (lung adenocarcinoma, adherent, top dose 2 µM) | 0.98 | < 5.70 | 0.957 | < 5.70 | 0.935 | < 5.70
31 | NCI-H524 (small cell lung carcinoma, suspension, top dose 4 µM) | 0.983 | < 5.40 | 0.783 | 5.82 | 0.988 | < 5.40
